Read-outs that look alike come from different tables or passages of the source.
Key:
[1] = molecular target: T1, recombinant human LTBP1-proTGFβ1 complex (Homo sapiens, UniProt P01137); test: Octet (Biolayer Interferometry) in vitro kinetic binding; conditions: in M
T1 construct: made in house; host or cells: Expi293F cells, transient co-transfection
Description: (§1) Biolayer Interferometry (BLI):BLI is a label-free technology for optically measuring biomolecular interactions, e.g., between a ligand immobilized on the biosensor tip surface and an analyte in solution. BLI provides the ability to monitor binding specificity, rates of association and dissociation, or concentration, with precision and accuracy. BLI platform instruments are commercially available, for example, from ForteBio and are commonly referred to as the Octet® System.
(§2) BLI-based binding assays are widely used in the art for measuring affinities and kinetics of antibodies to antigens. It is a label-free technology in which biomolecular interactions are analyzed on the basis of optical interference. One of the proteins, for example, an antibody being tested, can be immobilized on the biosensor tip. When the other protein in solution, for example, an antigen, becomes bound to the immobilized antibody, it causes a shift in the interference pattern, which can be measured in real-time. This allows the monitoring of binding specificity, rates of association and dissociation, as well as concentration dependency. […] Due to its ease of use and fast results, BLI-based assays such as the Octet® system (available from ForteBio/Molecular Devices, Fremont Calif.), are particularly convenient when used as an initial screening method to identify and separate a pool of “binders” from a pool of “non-binders” or “weak binders” in the screening process.
(§3) Table 8 below provides non-limiting examples of high-affinity, context-independent proTGFβ1 antibodies encompassed by the present invention. The table provides representative results from in vitro binding assays, as measured by Octet®.
(§4) Column (A) of the table lists monoclonal antibodies with discrete amino acid sequences. […] Columns (B), (D), (E) and (F) provide affinities of each of the listed antibodies, measured in KD. […] Average KD values of (B) and (C) are shown in the corresponding column (D), which collectively represents affinities of the antibodies to ECM- or matrix-associated proTGFβ1 complexes. […] Finally, relative ratios between the average KD values from columns (D) and (G) are expressed as “fold bias” in column (H). […] This is one way of quantitatively representing and comparing inherent bias of antibodies to their target complexes. […]
(§5) In some embodiments, the binding affinity of an antibody, or antigen binding portion thereof, to an antigen (e.g., protein complex), such as presenting molecule-proTGFβ1 complexes, is determined using an Octet assay. […] For example, binding affinities of antibodies may be determined using the fortéBio Octet QKe dip and read label free assay system utilizing bio-layer interferometry. […]

[2] = molecular target: T2, recombinant human LTBP3-proTGFβ1 complex (Homo sapiens, UniProt P01137); test: as above; conditions: in M
T2 construct: made in house; host or cells: Expi293F cells, transient co-transfection
T2 sequence (P01137 30-390): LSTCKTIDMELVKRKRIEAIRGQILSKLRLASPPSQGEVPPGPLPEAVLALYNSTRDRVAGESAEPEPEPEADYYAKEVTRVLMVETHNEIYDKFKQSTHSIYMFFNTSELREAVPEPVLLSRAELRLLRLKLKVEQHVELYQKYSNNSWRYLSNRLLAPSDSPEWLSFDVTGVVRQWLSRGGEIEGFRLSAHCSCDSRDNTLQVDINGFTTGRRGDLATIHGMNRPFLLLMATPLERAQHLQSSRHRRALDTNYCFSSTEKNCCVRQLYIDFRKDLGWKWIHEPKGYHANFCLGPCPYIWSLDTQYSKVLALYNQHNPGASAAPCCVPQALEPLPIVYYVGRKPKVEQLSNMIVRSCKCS
T2 sequence (Q9NS15 866-1039 partner limits assumed): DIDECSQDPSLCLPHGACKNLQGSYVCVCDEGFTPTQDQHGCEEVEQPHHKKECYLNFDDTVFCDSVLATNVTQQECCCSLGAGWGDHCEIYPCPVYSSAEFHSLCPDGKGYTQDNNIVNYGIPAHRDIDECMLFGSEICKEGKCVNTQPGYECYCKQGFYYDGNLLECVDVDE
Description: as §1, §2, §3, §4, §5

[3] = molecular target: T3, recombinant human GARP-proTGFβ1 complex (Homo sapiens, UniProt P01137); test: as above; conditions: in M
T3 construct: made in house
T3 sequence (P01137 30-390): as the sequence (P01137 30-390) above
T3 sequence (Q14392 20-627 partner limits assumed): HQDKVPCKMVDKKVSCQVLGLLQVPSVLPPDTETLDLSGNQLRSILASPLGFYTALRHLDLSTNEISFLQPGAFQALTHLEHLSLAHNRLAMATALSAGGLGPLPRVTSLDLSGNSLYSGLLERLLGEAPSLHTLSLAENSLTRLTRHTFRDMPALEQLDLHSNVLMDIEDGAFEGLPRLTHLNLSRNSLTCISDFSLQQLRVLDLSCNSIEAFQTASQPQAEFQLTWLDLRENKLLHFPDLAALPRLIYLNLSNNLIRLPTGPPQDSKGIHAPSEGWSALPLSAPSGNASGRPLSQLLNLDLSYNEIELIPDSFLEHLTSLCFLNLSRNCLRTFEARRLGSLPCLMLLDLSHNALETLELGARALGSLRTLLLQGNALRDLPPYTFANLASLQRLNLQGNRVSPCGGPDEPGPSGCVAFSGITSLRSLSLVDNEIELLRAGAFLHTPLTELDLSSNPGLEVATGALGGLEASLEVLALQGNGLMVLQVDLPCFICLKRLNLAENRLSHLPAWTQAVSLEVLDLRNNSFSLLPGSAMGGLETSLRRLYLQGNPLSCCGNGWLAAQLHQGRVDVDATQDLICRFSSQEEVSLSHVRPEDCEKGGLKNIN
Description: as §1, §2, §3, §4, §5

[4] = molecular target: T4, recombinant human LRRC33-proTGFβ1 complex (Homo sapiens, UniProt P01137); test: as above; conditions: in M
T4 construct: made in house
T4 sequence (P01137 30-390): as the sequence (P01137 30-390) above
T4 sequence (Q86YC3 19-650 partner limits assumed): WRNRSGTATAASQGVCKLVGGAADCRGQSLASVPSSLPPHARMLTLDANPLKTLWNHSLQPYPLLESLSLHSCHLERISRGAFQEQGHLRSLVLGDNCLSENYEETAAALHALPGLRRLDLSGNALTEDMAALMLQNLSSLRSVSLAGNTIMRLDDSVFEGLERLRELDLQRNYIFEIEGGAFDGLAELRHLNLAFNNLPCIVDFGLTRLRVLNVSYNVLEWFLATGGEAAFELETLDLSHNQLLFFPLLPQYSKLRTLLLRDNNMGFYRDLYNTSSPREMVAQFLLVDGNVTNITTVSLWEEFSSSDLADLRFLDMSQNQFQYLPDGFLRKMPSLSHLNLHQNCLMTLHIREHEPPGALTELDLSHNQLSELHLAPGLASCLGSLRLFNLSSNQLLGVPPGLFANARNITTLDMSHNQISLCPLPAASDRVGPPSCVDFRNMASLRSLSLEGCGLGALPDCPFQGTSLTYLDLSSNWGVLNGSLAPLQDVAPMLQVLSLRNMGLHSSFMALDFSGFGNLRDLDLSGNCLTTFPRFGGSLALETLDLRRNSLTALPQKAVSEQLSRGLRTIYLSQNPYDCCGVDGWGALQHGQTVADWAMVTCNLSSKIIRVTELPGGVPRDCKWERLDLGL
Description: as §1, §2, §3, §4, §5

[5] = test system: matrix-associated (LTBP1/LTBP3) and cell-associated (GARP/LRRC33) proTGFβ1 complexes; test: Octet: average KD and fold bias, matrix- vs cell-associated complexes; format: binding, human; conditions: average KD of (B) and (C), read-out: (D) ECM AVRG
[6] = test system: matrix-associated (LTBP1/LTBP3) and cell-associated (GARP/LRRC33) proTGFβ1 complexes; test: as above; format: binding, human
Description: Column (A) of the table lists monoclonal antibodies with discrete amino acid sequences. […] Columns (B), (D), (E) and (F) provide affinities of each of the listed antibodies, measured in KD. […] Average KD values of (B) and (C) are shown in the corresponding column (D), which collectively represents affinities of the antibodies to ECM- or matrix-associated proTGFβ1 complexes. Similarly, Average KD values of (E) and (F) are shown in the corresponding column (G), which collectively represents affinities of the antibodies to cell-surface or cell-associated proTGFβ1 complexes. Finally, relative ratios between the average KD values from columns (D) and (G) are expressed as “fold bias” in column (H). […] This is one way of quantitatively representing and comparing inherent bias of antibodies to their target complexes.
Average KD values between the two matrix-associated and cell-associated complexes are calculated, respectively (see columns (D) and (G)). These average KD values can then be used to ask whether bias in binding activities exists between complexes associated with matrix vs. complexes associated with cell surface (e.g., immune cells). Bias may be expressed as “fold-difference” in the average KD values, as illustrated in Table 8.

T1 sequence (P01137 30-390): as the sequence (P01137 30-390) above
T1 sequence (Q14766 873-1507 partner): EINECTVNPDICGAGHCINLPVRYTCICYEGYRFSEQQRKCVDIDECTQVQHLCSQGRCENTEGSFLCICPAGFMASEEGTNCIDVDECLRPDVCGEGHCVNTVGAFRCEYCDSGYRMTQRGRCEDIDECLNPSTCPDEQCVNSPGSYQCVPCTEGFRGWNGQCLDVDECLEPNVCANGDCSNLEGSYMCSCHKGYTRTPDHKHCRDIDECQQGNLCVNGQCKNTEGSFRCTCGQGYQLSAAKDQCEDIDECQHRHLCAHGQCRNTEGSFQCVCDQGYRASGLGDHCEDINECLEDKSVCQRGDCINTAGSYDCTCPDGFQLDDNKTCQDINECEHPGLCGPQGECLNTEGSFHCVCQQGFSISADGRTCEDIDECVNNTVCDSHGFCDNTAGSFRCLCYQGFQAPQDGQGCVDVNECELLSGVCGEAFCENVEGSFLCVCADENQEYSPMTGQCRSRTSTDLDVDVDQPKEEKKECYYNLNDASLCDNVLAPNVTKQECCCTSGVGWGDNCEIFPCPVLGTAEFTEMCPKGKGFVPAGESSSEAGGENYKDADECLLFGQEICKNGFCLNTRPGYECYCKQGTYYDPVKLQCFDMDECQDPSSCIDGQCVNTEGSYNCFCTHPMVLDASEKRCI

- (B) hLTBP1, Matrix-associated proTGFb1 (KD) [1]: 2.62E−10
- (C) hLTBP3, Matrix-associated proTGFb1 (KD) [2]: 3.19E−10
- (E) hGARP, Cell-associated proTGFb1 (KD) [3]: 1.02E−08
- (F) hLRRC33, Cell-associated proTGFb1 (KD) [4]: 1.06E−09
B1: Ab10: monoclonal antibody; VH SEQ ID NO: 239, VL SEQ ID NO: 240 (antibody, V domains shown)
VH: EVQLLESGGGLVQPGGSLRLSCAASGFTFRNYAMSWVRQAPGKGLEWVSSISGSGGATYYADSVKGRFTISRDNSKNTLYLQMNSLRAEDTAVYYCARVSSGHWDFDYWGQGTLVTVSS
VL: DIQMTQSPSSLSASVGDRVTITCQASQDISNSLNWYQQKPGKAPKLLIYDASNLETGVPSRFSGSRSGTDFTFTISSLQPEDIATYYCQQAPNLPFTFGGGTKVEIK
- Kd [5]: 0.29 nM
- Kd ([6]; average KD of (E) and (F), cell-associated complexes, read-out: (G) Cell AVRG): 5.63 nM
- (H) G/D (fold bias) ([6]; ratio of average KD cell-associated / matrix-associated): 19.38 fold

Source: US11130803B2, “Isoform-selective TGFβ1 inhibitors and use thereof” (Scholar Rock, Inc., priority 2018, dated 2021)
